Measured values: US12715909 (ENTHERA S R L, dated 2026)

Tests used:
human IGFBP5 = target: T1, human IGFBP5 (human, UniProt P24593); assay: BLI (Octet/BLItz), mAb captured via Fc on AHC biosensor, antigen in solution
T1 construct: Bought protein; in BLI it was in solution; also called hIGFBP-5
Description: (§1) To assess the binding affinity in more detail, affinity measurements were performed using Biomolecular Interaction Analysis performed by an Octet platform (BLItz System), which is a Biolayer Interferometry (BLI) platform. To establish the assay, the target monoclonal antibody (mAb, 2 identical antigen binding moieties, 2 μg/ml in 1% BSA containing 0.05% Tween 20) was immobilized via Fc on the via AHC biosensor and the interaction with the antigen human IGFBP5 (R&D, cat n° 875-B5) and mouse IGFBP5 (R&D, cat n° 578-B5) at different concentration were measured.

mouse IGFBP5 = target: T2, mouse IGFBP5 (mouse, UniProt Q07079 20-271); assay: as above
T2 construct: Bought protein; in solution in BLI; also called mIGFBP-5; murine IGFBP5
Description: as §1

Chain of human IGFBP5 (P24593 21-272 limits assumed): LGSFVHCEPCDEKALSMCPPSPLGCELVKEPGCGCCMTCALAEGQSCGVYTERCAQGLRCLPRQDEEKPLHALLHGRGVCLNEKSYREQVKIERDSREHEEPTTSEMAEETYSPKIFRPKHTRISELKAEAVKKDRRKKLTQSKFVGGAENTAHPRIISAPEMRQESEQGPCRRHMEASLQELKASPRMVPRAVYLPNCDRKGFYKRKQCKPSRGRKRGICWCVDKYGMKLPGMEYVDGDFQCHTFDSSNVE
Chain of mouse IGFBP5 (Q07079 20-271 limits assumed): as the sequence (P24593 21-272 limits assumed) above, with R87G, V90T, I116V, I157V, S159P, L183F, T245A counted along it

Kd (human IGFBP5): 0.1 nM
Kd (mouse IGFBP5): 0.1 nM
B1: B06 full length mAb (antibody, V domains shown)
VH: [letters of about 100 residues left out]GAGTLDYWGQGTLVTVSS
VL: DIVMTQSPDSLAVSLGERATINCKSSQSVLYSSNNKNYLSWYQQKPGQPPKLLIYWASTRESGVPDRFSGSGSGTDFTLTISSLQAEDVAVYYCQQYYSTPLTFGGGTKVEIK
notes: also called anti-IGFBP5 mAb B06
